For four molecules, binding results are on record in PMC3903633.

These are yes or no findings as the source states them, for the method shown. For part of these data: In cells and extracts the contact can be indirect. Some binding calls cover weakened binding; strength is not graded here. Where a sequence is shown, tags or fusion partners need not be part of it.

Experiment [1] has as its target T1, PCC1 fused to HA, GFP or c-myc tags (Arabidopsis thaliana) (UniProt Q94C26).
T1 sequence: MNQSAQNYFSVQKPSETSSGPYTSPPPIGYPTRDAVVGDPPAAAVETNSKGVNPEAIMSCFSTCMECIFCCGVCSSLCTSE
The experiment in a line: co-IP; Nicotiana benthamiana leaves co-transformed with PCC1-HA and GFP- or c-myc-tagged constructs; total protein extracts in TBS with protease inhibitors and detergent; IP with anti-HA magnetic beads, Western blot with anti-GFP or anti-c-myc. For orientation: Immunoblotting shows a protein as a band on a membrane.

The target of experiment [2] is Pathogen and Circadian Controlled 1 (PCC1) fused to the activation domain or to the DNA binding domain of GAL4 (Arabidopsis thaliana) (UniProt Q94C26). Put plainly: two-hybrid; AD and BD fusions of GAL4 (pPC86, pDBLeu) in S. cerevisiae Mav203; growth in minimal medium -Leu -Trp -His.
Experiment [3] deals with T2, GFP-Δ177PCC1, truncated PCC1 lacking the C-terminus, fused to GFP (Arabidopsis thaliana) (UniProt Q94C26).
T2 sequence: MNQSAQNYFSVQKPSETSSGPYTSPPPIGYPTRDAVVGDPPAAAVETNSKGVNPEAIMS
The experiment in a line: co-IP; reverse IP: Nicotiana benthamiana leaves co-transformed with PCC1-HA and GFP-tagged constructs; IP with anti-GFP magnetic beads, Western blot with anti-HA.

Experiment [4] has as its target T1, PCC1 fused to HA, GFP or c-myc tags (Arabidopsis thaliana). Described as above.
Experiment [5] deals with T3, PCC1 fused to the C-terminal or the N-terminal half of YFP (Arabidopsis thaliana) (UniProt Q94C26).
T3 sequence: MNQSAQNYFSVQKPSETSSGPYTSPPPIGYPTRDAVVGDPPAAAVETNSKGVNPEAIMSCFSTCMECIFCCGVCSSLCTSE
Put plainly: split reporter; BiFC: pairs of proteins each fused to half of YFP (pYFC43, pYFN43), transient co-transformation of Nicotiana benthamiana leaves by agroinfiltration; confocal microscopy.

B1: GFP-Δ177PCC1, truncated PCC1 lacking the C-terminus, fused to GFP (domain or fragment, UniProt Q94C26 1-59)
chain: MNQSAQNYFSVQKPSETSSGPYTSPPPIGYPTRDAVVGDPPAAAVETNSKGVNPEAIMS
B1: the binding result in experiment [1] was “no binding”.

B2: Pathogen and Circadian Controlled 1 (PCC1) fused to the activation domain or to the DNA binding domain of GAL4 (protein, UniProt Q94C26 1-81)
chain: MNQSAQNYFSVQKPSETSSGPYTSPPPIGYPTRDAVVGDPPAAAVETNSKGVNPEAIMSCFSTCMECIFCCGVCSSLCTSE
Turning to B2, in experiment [2], the binding result is “binds”.

B3: PCC1 fused to HA, GFP or c-myc tags (protein, UniProt Q94C26 1-81)
chain: MNQSAQNYFSVQKPSETSSGPYTSPPPIGYPTRDAVVGDPPAAAVETNSKGVNPEAIMSCFSTCMECIFCCGVCSSLCTSE
Turning to B3, the binding result in experiment [1] was “binds”; in experiment [3], “no binding”; in experiment [4], “binds”.

B4: PCC1 fused to the C-terminal or the N-terminal half of YFP (protein, UniProt Q94C26 1-81)
chain: MNQSAQNYFSVQKPSETSSGPYTSPPPIGYPTRDAVVGDPPAAAVETNSKGVNPEAIMSCFSTCMECIFCCGVCSSLCTSE
With B4, in experiment [5], the binding entry is “binds”.
